This is one part of the list. Sequences were assembled here from the parent chain. Inactive controls read about 0.05.
B1: TEV protease; numbered along this chain (parent)
chain: MGESLFKGPRDYNPISSSICHLTNESDGHTTSLYGIGFGPFIITNKHLFRRNNGTLVVQSLHGVFKVKDTTTLQQHLVDGRDMIIIRMPKDFPPFPQKLKFREPQREERICLVTTNFQTKSMSSMVSDTSCTFPSGDGIFWKHWIQTKDGQCGSPLVSTRDGFIVGIHSASNFTNTNNYFTSVPKNFMELLTNQEAQQWVSGWRLNADSVLWGGHKVFMVKPEEPFQPVKEATQL

Variants of: B1
Assay: raw area under fraction-flipped curve 0-4 h after induction (AUC4h, not background-subtracted), DNA-recorder readout of cleavage of the substrate (dimensionless); higher = more cleavage of the substrate by the protease variant
Conditions: temperature: 34 °C; time window: 0-4 h after rhamnose induction
Procedure: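 In vivo DNA recorder in E. coli TOP10(DE3) ΔrhaA at 34 °C. Each TEVp single-site mutant (parent TEVp 0) is paired with a single-site variant of the 7-mer TEVs (canonical ENLYFQ|S). The substrate sits between flexible linkers in a Bxb1-sfGFP-TEVs-SsrA fusion, so cleavage stabilises Bxb1 and speeds flipping of a recombination array, read by NGS. The value is the raw area under the fraction-flipped curve over 0-4 h after rhamnose induction (AUC4h), with ≥20 reads per time point. It is not background-subtracted; inactive controls average about 0.047.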
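Also: Bxb1 expression induced with 0.2% (w/v) L-rhamnose at OD600 near 0.5, cultures sampled hourly, flipped fraction per protease–substrate barcode pair counted by paired-end Illumina sequencing.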

Variant | area with substrate ENLYFQF | area with substrate ENLYFQL | area with substrate ENLYFQM | area with substrate ENLYFQQ | area with substrate ENLYFQR | area with substrate ENLYFQS | area with substrate ENLYFQW | area with substrate ENLYFQY | area with substrate ENLYFQG | area with substrate ENLYFQK
S209R | 0.0649 | 0.0582 | 0.0606 | 0.0723 | 0.0559 | 0.0859 | 0.068 | 0.0602 |  | 
S209H |  | 0.0534 |  | 0.062 | 0.0625 | 0.113 | 0.0873 | 0.0807 | 0.11 | 0.0674
K90A |  |  |  | 0.0825 |  | 0.0993 | 0.0641 |  |  | 
G214E |  |  |  |  | 0.0444 | 0.0875 |  | 0.0561 | 0.137 | 
I145G |  | 0.0521 |  |  | 0.0566 | 0.0973 |  |  | 0.0702 | 
Q194I | 0.0531 |  |  |  | 0.0905 | 0.0939 |  |  |  | 
S169K |  | 0.0276 |  |  |  | 0.0472 |  | 0.0379 |  | 
T119L | 0.07 | 0.0344 |  |  |  | 0.102 |  |  |  | 
G2K |  |  |  |  | 0.0709 | 0.134 |  |  | 0.136 | 
G2N | 0.125 |  | 0.113 |  | 0.0628 | 0.14 |  |  |  | 
G2S | 0.0923 |  | 0.104 |  |  | 0.14 |  |  |  | 
G2Y | 0.115 | 0.046 |  |  |  | 0.144 | 0.097 |  | 0.141 | 0.0697
A170W |  | 0.0595 |  | 0.0567 |  | 0.0554 | 0.0654 | 0.0707 | 0.0657 | 0.0628
L190N | 0.0588 |  | 0.0763 |  | 0.0571 | 0.0895 | 0.0509 |  |  | 
R87N |  |  |  |  | 0.0421 | 0.106 |  |  | 0.0832 | 
R87Q |  |  |  |  |  | 0.131 |  |  |  | 0.067
R87V | 0.0687 |  | 0.0865 |  |  | 0.0785 |  | 0.059 |  | 
E195P |  |  |  |  |  | 0.084 |  |  | 0.0756 | 0.0822
W141N |  | 0.0595 | 0.0536 |  |  | 0.0571 | 0.0588 | 0.0213 | 0.0307 | 
K185L |  |  | 0.128 |  | 0.06 | 0.108 |  |  |  | 
K185V |  | 0.0855 | 0.102 |  | 0.0642 | 0.102 |  |  |  | 0.0443
T181I | 0.0472 |  |  |  |  | 0.0706 | 0.0572 |  | 0.0824 | 
R51N |  | 0.058 |  |  | 0.0497 | 0.1 | 0.0625 | 0.0898 | 0.102 | 
G202W |  | 0.0536 |  |  |  | 0.0598 | 0.07 | 0.0414 | 0.0733 | 0.0686

Same assay, conditions: temperature: 34 °C; time window: 0-4 h after rhamnose induction

Variant | area with substrate ENLYFQP | area with substrate ENLYFQT | area with substrate ENLYFQV | area with substrate ENLYFQD | area with substrate ENLYFQI | area with substrate ENLYFQN | area with substrate ENLYFQE | area with substrate ENLYFQH
S209H | 0.0585 | 0.0504 | 0.0649 |  |  |  |  | 
K90A |  |  |  | 0.0925 |  |  |  | 
G214E | 0.0531 | 0.0634 |  | 0.0523 | 0.0529 | 0.085 |  | 
I145G |  | 0.0699 |  |  | 0.0614 |  | 0.0593 | 
Q194I |  | 0.0757 | 0.0709 |  |  |  |  | 0.0817
S169K |  |  |  | 0.0684 |  | 0.0503 |  | 
G2K |  | 0.0684 |  | 0.0541 | 0.0784 | 0.109 |  | 
G2N |  |  | 0.053 |  |  |  |  | 0.0946
G2S |  | 0.0716 |  |  |  |  |  | 0.101
G2Y | 0.0458 | 0.0682 |  |  | 0.0645 | 0.115 |  | 
A170W | 0.0548 | 0.0241 |  |  | 0.0587 | 0.0512 |  | 0.0505
L190N |  | 0.0435 |  | 0.0746 |  | 0.0707 |  | 
R87N |  | 0.053 |  |  |  |  |  | 
R87Q | 0.064 |  |  | 0.0912 |  |  |  | 
R87V |  | 0.0464 | 0.0633 |  |  | 0.0977 |  | 
W141N |  |  |  |  | 0.0443 |  |  | 
K185L | 0.0541 | 0.0539 | 0.0593 | 0.0695 | 0.0419 | 0.0686 |  | 0.0861
K185V | 0.0463 | 0.0459 | 0.0315 | 0.0707 | 0.0668 |  |  | 0.0808
G202W | 0.0632 |  |  |  | 0.0523 | 0.0574 |  | 

Source: the supplement of paper PMC12217912
